Columns and labels:
MDCK/58P1D12 cells = experiment: Boyden Transwell chamber cell migration assay; assay type: cell-based, Canine; details: 25 μg/mL MAb, 16 hours
Description: FIG. 5. […] Canine MDCK cells were transduced with retroviruses (empty vector [Neo] or 58P1D12). […] Cells captured on the bottom filter were labeled with Calcein AM dye for 30 minutes and photographed. Empty vector expressing cells were included for negative control. The level of cell fluorescence (migration) was quantitated with MetaMorph imaging software.
FIG. 7. Comparison of 58P1D12 MAbs for Functional Activity in vitro. […] Tumor cell migration was evaluated using MDCK/58P1D12 cells in the Boyden Transwell chamber migration assay. Migration was evaluated by plating 4×10^4 MDCK/58P1D12 cells into the upper chamber of a Boyden Transwell apparatus in 0.1% FBS plus 25 μg/mL control MAb or 58P1D12 MAb, and allowing the cells to migrate for 16 hours toward 10% FBS in the lower chamber. Cells captured on the bottom filter were labeled with Calcein AM dye for 30 minutes and photographed. The level of cell fluorescence (migration) was quantitated with MetaMorph imaging software.
Cells captured on the bottom filter were labeled with Calcein AM dye for 30 minutes and photographed. The level of cell fluorescence (migration) was quantitated with MetaMorph imaging software.
Tumor cell migration was evaluated using MDCK/58P1D12 cells in the Boyden Transwell chamber migration assay. […] The level of cell fluorescence (migration) was quantitated with MetaMorph imaging software.

HUVEC = experiment: 58P1D12 ECD-induced HUVEC tube formation; assay type: cell-based; details: MAb 30 μg/mL, recombinant 58P1D12 ECD 3 μg/mL, 16 hours
Description: FIG. 8. […] The cells were then plated on Matrigel® and allowed to form tubes for 16 hours. The number of tubes were counted.
FIG. 9. 58P1D12 MAbs: Comparison of in vitro HUVEC tube formation. […] The cells were then plated on Matrigel® and allowed to form tubes for 16 hours. The number of tubes were counted.
The cells were then plated on Matrigel® and allowed to form tubes for 16 hours.
The cells were then plated on Matrigel® and allowed to form tubes for 16 hours. The number of tubes were counted. […] (FIG. 9).

[1] = system: 3T3-58P1D12 tumor xenografts; experiment: 3T3-58P1D12 tumor xenografts, right flank; assay type: in vivo, SCID mice; details: day 27; 500 μg i.p. twice weekly, 8 doses from Day 0; vs control antibody, p<0.0001
Text: FIG. 11. […] 3T3-58P1D12 cells (5.0×10^6 cells) were embedded in Matrigel and implanted into the right flanks of male SCID mice on Day 0. […] Tumor growth was monitored every 3 to 4 days using caliper measurements.
Subcutaneous (s.c.) tumors are generated by injection of 5×10^4-10^6 cancer cells mixed at a 1:1 dilution with Matrigel (Collaborative Research) in the right flank of male SCID mice. To test antibody efficacy on tumor formation, i.e. antibody injections are started on the same day as tumor-cell injections. As a control, mice are injected with either purified mouse IgG (ICN) or PBS; or a purified MAb that recognizes an irrelevant antigen not expressed in human cells. In preliminary studies, no difference is found between mouse IgG or PBS on tumor growth. Tumor sizes are determined by caliper measurements, and the tumor volume is calculated as length×width×height. Mice with subcutaneous tumors greater than 1.5 cm in diameter are sacrificed.
In this experiment, 3T3-58P1D12 cells (5.0×10^6 cells) were embedded in Matrigel and implanted into the right flanks of male SCID mice on Day 0. […] Tumor growth was monitored every 3 to 4 days using caliper measurements.

[2] = system: 3T3-58P1D12 tumor xenografts; experiment: Established 3T3-58P1D12 tumors grown in mouse tibiae; assay type: in vivo, SCID mice; details: day 24; loading dose 1.5 mg then 750 μg i.p. twice weekly, 6 doses from day 7; vs control antibody, <0.01
Text: FIG. 12. […] Tumor growth was monitored every 3 to 4 days using caliper measurements.
Tumor growth is monitored using calipers.
Tumor growth was monitored every 3 to 4 days using caliper measurements.

cell surface 58P1D12 = biological target: T1, cell surface 58P1D12 (Homo sapiens, UniProt Q9H9P2); experiment: Binding to 58P1D12 by flow cytometry or ELISA; details: cell surface 58P1D12 by flow cytometry or immobilized 58P1D12 by ELISA
T1 construct: host or cells: 58P1D12-expressing cells, endogenous (cancer xenograft cells) or recombinant
T1 sequence (Q9H9P2 22-273): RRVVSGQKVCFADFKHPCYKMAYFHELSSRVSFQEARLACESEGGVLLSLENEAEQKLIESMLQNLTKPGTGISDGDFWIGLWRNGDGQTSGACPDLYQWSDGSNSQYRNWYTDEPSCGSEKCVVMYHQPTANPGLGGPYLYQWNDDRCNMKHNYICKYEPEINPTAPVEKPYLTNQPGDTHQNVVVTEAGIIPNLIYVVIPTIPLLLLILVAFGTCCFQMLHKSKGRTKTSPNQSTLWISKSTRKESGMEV
Description: Primary hybridoma screening for MAbs to 58P1D12 is performed by FACS analysis. The protocol is as follows: 50 μl/well of hybridoma supernatant (neat) or purified antibodies (in serial dilutions) are added to 96-well FACS plates and mixed with 58P1D12-expressing cells (endogenous or recombinant, 50,000 cells/well). The mixture is incubated at 4° C. for two hours. At the end of incubation, the cells are washed with FACS Buffer and incubated with 100 μl of detection antibody (anti-hIgG-PE) for 45 minutes at 4° C. At the end of incubation, the cells are washed with FACS Buffer, fixed with Formaldehyde and analyzed using FACScan. Data are analyzed using CellQuest Pro software.

[3] = system: LAPC9-AD prostate cancer xenografts; experiment: LAPC9-AD prostate cancer xenografts grown in mouse tibiae; details: day 32; 500 μg i.p. twice weekly, 10 doses; vs control antibody, p=0.0057

B1: Ha8-4c4.1: fully human γ1κ monoclonal antibody to 58P1D12 (Ha8-4c4.1 VH & Ha8-4c4.1 VL clone 1-B3); hybridoma ATCC PTA-9404 (antibody, V domains shown)
VH: QVQLQESGPGLVKPSETLSLTCTVSGGSVSSGGYYWSWIRQPPGKGLEWIGYIYYSGGTNYNPSLKSRVTISVDTSKNQFSLKLTSVTAADTAVYYCARESGYCTNVACFPDAFDIWGQGTMVTVSS
VL: DIVMTQSPDSLAVSLGERATINCKSSQGVLYSSNNKNYLAWYQQKPGQPPKLLIYWASTRESGVPDRFSGSGSGTDFTLTISSLQAEDVAVYFCQQYYVSPLTFGGGTKVEIKR
In the case of B1, the “inhibition of cell migration” value (MDCK/58P1D12 cells; 0.1% FBS toward 10% FBS, vs control MAb, p<0.0001) is reported as “approximately 45%”, the “effect on tumor cell migration (comparison of 58P1D12 MAbs)” value (MDCK/58P1D12 cells) is reported as “inhibited cell migration” and the “HUVEC tube formation inhibition (comparison of 58P1D12 MAbs)” value (HUVEC) is reported as “+”. For the same molecule, the “inhibition of tube formation” value (HUVEC; p=0.005) was 50%, the “inhibition of tumor growth (tumor volume)” value [1] was “approximately 78%” and the “inhibition of growth of established tumors” value [2] was “approximately 63%”. The “binding to 58P1D12” value (cell surface 58P1D12) was “specifically bind to recombinant 58P1D12 expressing cells and endogenous cell surface 58P1D12 expressed in cancer xenograft cells” and the “inhibition of tumor growth (tumor weight)” value [3] was 60%.

From patent US20100047166A1, “ANTIBODIES AND RELATED MOLECULES THAT BIND TO 58P1D12 PROTEINS” (priority 2008, published 2010)
